Results from publication PMC9911399, “Two distinct binding modes provide the RNA-binding protein RbFox with extraordinary sequence specificity”.
Residue numbers refer to the chain shown, from its start. Some of the results follow.

T1: RBFOX1 RRM RbFoxmut (Fox-RRM*) (Homo sapiens, UniProt Q9NWB1 109-208, R118D;E147R;N151S;E152T)
T1 sequence: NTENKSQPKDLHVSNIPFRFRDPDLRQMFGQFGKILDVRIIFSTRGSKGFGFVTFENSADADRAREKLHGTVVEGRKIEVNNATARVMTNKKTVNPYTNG

B1: AGCGCUU (DNA:RNA)
RNA: GGGAGACCGGAAUUCAGAUUGUCCAGCGCUUUUAAAUCCCGUCGUAGCCACCA
DNA 1: CAATCTGAATTCCGGTCTCCC
DNA 2: TGGTGGCTACGACGGGATT
B2: CGGGCGG (DNA:RNA)
RNA: B1 RNA with A25C, C27G, U30G, U31G
DNA 1: CAATCTGAATTCCGGTCTCCC
DNA 2: TGGTGGCTACGACGGGATT
B3: GGUAGCG (DNA:RNA)
RNA: B1 RNA with A25G, C27U, G28A, C29G, U30C, U31G
DNA 1: CAATCTGAATTCCGGTCTCCC
DNA 2: TGGTGGCTACGACGGGATT
B4: GAAGGAC (DNA:RNA)
RNA: B1 RNA with A25G, G26A, C27A, C29G, U30A, U31C
DNA 1: CAATCTGAATTCCGGTCTCCC
DNA 2: TGGTGGCTACGACGGGATT
B5: CCCGACC (DNA:RNA)
RNA: B1 RNA with A25C, G26C, C29A, U30C, U31C
DNA 1: CAATCTGAATTCCGGTCTCCC
DNA 2: TGGTGGCTACGACGGGATT
B6: CCUACCC (DNA:RNA)
RNA: B1 RNA with A25C, G26C, C27U, G28A, U30C, U31C
DNA 1: CAATCTGAATTCCGGTCTCCC
DNA 2: TGGTGGCTACGACGGGATT
B7: CUCAGGA (DNA:RNA)
RNA: B1 RNA with A25C, G26U, G28A, C29G, U30G, U31A
DNA 1: CAATCTGAATTCCGGTCTCCC
DNA 2: TGGTGGCTACGACGGGATT
B8: CAUCUCA (DNA:RNA)
RNA: GGGAGACCGGAAUUCAGAUUGUCCCAUCUCAUUAAAUCCCGUCGUAGCCACCA
DNA 1: CAATCTGAATTCCGGTCTCCC
DNA 2: TGGTGGCTACGACGGGATT
B9: UAUAGUC (DNA:RNA)
RNA: B8 RNA with C25U, C28A, U29G, C30U, A31C
DNA 1: CAATCTGAATTCCGGTCTCCC
DNA 2: TGGTGGCTACGACGGGATT
B10: GCUUUCU (DNA:RNA)
RNA: B8 RNA with C25G, A26C, C28U, A31U
DNA 1: CAATCTGAATTCCGGTCTCCC
DNA 2: TGGTGGCTACGACGGGATT
B11: UACCUCA (DNA:RNA)
RNA: B8 RNA with C25U, U27C
DNA 1: CAATCTGAATTCCGGTCTCCC
DNA 2: TGGTGGCTACGACGGGATT
B12: UCAUAGU (DNA:RNA)
RNA: B1 RNA with A25U, G26C, C27A, G28U, C29A, U30G
DNA 1: CAATCTGAATTCCGGTCTCCC
DNA 2: TGGTGGCTACGACGGGATT
B13: GCAGCAU (DNA:RNA)
RNA: B1 RNA with A25G, G26C, C27A, U30A
DNA 1: CAATCTGAATTCCGGTCTCCC
DNA 2: TGGTGGCTACGACGGGATT
B14: CGUCACA (DNA:RNA)
RNA: B8 RNA with A26G, U29A
DNA 1: CAATCTGAATTCCGGTCTCCC
DNA 2: TGGTGGCTACGACGGGATT
B15: CCGUUAC (DNA:RNA)
RNA: B8 RNA with A26C, U27G, C28U, C30A, A31C
DNA 1: CAATCTGAATTCCGGTCTCCC
DNA 2: TGGTGGCTACGACGGGATT
B16: CACCUGC (DNA:RNA)
RNA: B8 RNA with U27C, C30G, A31C
DNA 1: CAATCTGAATTCCGGTCTCCC
DNA 2: TGGTGGCTACGACGGGATT
B17: UUCCUGC (DNA:RNA)
RNA: B8 RNA with C25U, A26U, U27C, C30G, A31C
DNA 1: CAATCTGAATTCCGGTCTCCC
DNA 2: TGGTGGCTACGACGGGATT
B18: AAAGUAU (DNA:RNA)
RNA: B1 RNA with G26A, C27A, C29U, U30A
DNA 1: CAATCTGAATTCCGGTCTCCC
DNA 2: TGGTGGCTACGACGGGATT
B19: UAGACUC (DNA:RNA)
RNA: B1 RNA with A25U, G26A, C27G, G28A, U31C
DNA 1: CAATCTGAATTCCGGTCTCCC
DNA 2: TGGTGGCTACGACGGGATT
B20: CUAGCCA (DNA:RNA)
RNA: B8 RNA with A26U, U27A, C28G, U29C
DNA 1: CAATCTGAATTCCGGTCTCCC
DNA 2: TGGTGGCTACGACGGGATT
B21: GAAGUAU (DNA:RNA)
RNA: B1 RNA with A25G, G26A, C27A, C29U, U30A
DNA 1: CAATCTGAATTCCGGTCTCCC
DNA 2: TGGTGGCTACGACGGGATT
B22: CCUGUAC (DNA:RNA)
RNA: B8 RNA with A26C, C28G, C30A, A31C
DNA 1: CAATCTGAATTCCGGTCTCCC
DNA 2: TGGTGGCTACGACGGGATT
B23: GACCGCA (DNA:RNA)
RNA: B8 RNA with C25G, U27C, U29G
DNA 1: CAATCTGAATTCCGGTCTCCC
DNA 2: TGGTGGCTACGACGGGATT
B24: AUUUGCU (DNA:RNA)
RNA: B1 RNA with G26U, C27U, G28U, C29G, U30C
DNA 1: CAATCTGAATTCCGGTCTCCC
DNA 2: TGGTGGCTACGACGGGATT
B25: GCAGUGC (DNA:RNA)
RNA: B1 RNA with A25G, G26C, C27A, C29U, U30G, U31C
DNA 1: CAATCTGAATTCCGGTCTCCC
DNA 2: TGGTGGCTACGACGGGATT
B26: UUGAGGG (DNA:RNA)
RNA: GGGAGACCGGAAUUCAGAUUGUCCUUGAGGGUUAAAUCCCGUCGUAGCCACCA
DNA 1: CAATCTGAATTCCGGTCTCCC
DNA 2: TGGTGGCTACGACGGGATT
B27: UGUCACC (DNA:RNA)
RNA: B8 RNA with C25U, A26G, U29A, A31C
DNA 1: CAATCTGAATTCCGGTCTCCC
DNA 2: TGGTGGCTACGACGGGATT
B28: AAUGGGC (DNA:RNA)
RNA: B1 RNA with G26A, C27U, C29G, U30G, U31C
DNA 1: CAATCTGAATTCCGGTCTCCC
DNA 2: TGGTGGCTACGACGGGATT
B29: UUAUAUU (DNA:RNA)
RNA: B1 RNA with A25U, G26U, C27A, G28U, C29A
DNA 1: CAATCTGAATTCCGGTCTCCC
DNA 2: TGGTGGCTACGACGGGATT
B30: CUAGACG (DNA:RNA)
RNA: B8 RNA with A26U, U27A, C28G, U29A, A31G
DNA 1: CAATCTGAATTCCGGTCTCCC
DNA 2: TGGTGGCTACGACGGGATT
B31: CGAUCGU (DNA:RNA)
RNA: B1 RNA with A25C, C27A, G28U, U30G
DNA 1: CAATCTGAATTCCGGTCTCCC
DNA 2: TGGTGGCTACGACGGGATT

These binders were tested against T1, RBFOX1 RRM RbFoxmut (Fox-RRM*) (assay: EMSA; HiTS-Eq, 1 nM pool, 10 min; buffer printed only for the single-RNA assays: 10 mM Tris pH 7.5, 150 mM NaCl, 3.4 mM EDTA, 0.001% NP-40, 30 C). Conditions: tags: His6 N-terminal (pET28a); label: 5' 32P.
In short: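 Purified RbFox RRM, wild type or mutant, was incubated for 10 min in 50 µL with 1 nM of a 5′-radiolabelled RNA pool carrying 7 randomized nucleotides, whose flanks were annealed to DNA oligonucleotides, over a series of increasing protein concentrations. Unbound RNA was resolved on 8% native PAGE, cut out, reverse-transcribed, barcoded by PCR and sequenced on an Illumina HiSeq 2500. Relative association constants were derived from changes in read counts for each RNA species versus the control reaction and normalised to the cognate motif.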
For B1, the binding signal was 0.0939 KA relative to UGCAUGU. For B2, the binding signal was 0.105 KA relative to UGCAUGU. With B3 the binding signal was 0.125 KA relative to UGCAUGU. For B4, the binding signal was 0.0308 KA relative to UGCAUGU. For B5, the binding signal was 0.0908 KA relative to UGCAUGU. B6 was tested, and the binding signal was 0.0698 KA relative to UGCAUGU. For B7, the binding signal was 0.0766 KA relative to UGCAUGU. For B8, the binding signal was 0.11 KA relative to UGCAUGU. In the case of B9, the binding signal is reported as 0.107 KA relative to UGCAUGU. B10 was tested, and the binding signal was 0.0425 KA relative to UGCAUGU. B11 was tested, and the binding signal was 0.138 KA relative to UGCAUGU. B12 was tested, and the binding signal was 0.108 KA relative to UGCAUGU. With B13 the binding signal was 0.124 KA relative to UGCAUGU. In the case of B14, the binding signal is reported as 0.0909 KA relative to UGCAUGU. For B15, the binding signal was 0.0966 KA relative to UGCAUGU. For B16, the binding signal was 0.123 KA relative to UGCAUGU. With B17 the binding signal was 0.104 KA relative to UGCAUGU. For B18, the binding signal was 0.154 KA relative to UGCAUGU. With B19 the binding signal was 0.0412 KA relative to UGCAUGU. B20 was tested, and the binding signal was 0.091 KA relative to UGCAUGU. For B21, the binding signal was 0.106 KA relative to UGCAUGU. B22 was tested, and the binding signal was 0.123 KA relative to UGCAUGU. For B23, the binding signal was 0.138 KA relative to UGCAUGU. With B24 the binding signal was 0.126 KA relative to UGCAUGU. With B25 the binding signal was 0.0818 KA relative to UGCAUGU. For B26, the binding signal was 0.106 KA relative to UGCAUGU. With B27 the binding signal was 0.0681 KA relative to UGCAUGU. B28 was tested, and the binding signal was 0.0842 KA relative to UGCAUGU. With B29 the binding signal was 0.0963 KA relative to UGCAUGU. In the case of B30, the binding signal is reported as 0.0782 KA relative to UGCAUGU. B31 was tested, and the binding signal was 0.118 KA relative to UGCAUGU.
